Data from ChEMBL document CHEMBL4888484, “Replenishing the malaria drug discovery pipeline: Screening and hit evaluation of the MMV Hit Generation Library 1 (HGL1) against asexual blood stage Plasmodium falciparum ,using a nano luciferase reporter read-out” (2022).
Among all 150,000 compounds or so, about 540 (0.36%) showed an effect of 50% or more. Some of the results follow.

Tested on: Plasmodium falciparum
Assay: Primary screen in NF54 nanoGlo assay, in single point, at 2uM, 72h; a lower Z score goes with more inhibition
Assay type: functional, Erythrocyte
Conditions: timepoint 72 hour

Compound | % Inhibition | Z score | % Inhibition (2 µM) | Z score (2 µM)
COc1ccc([C@H](CNCc2c(C)nn(C)c2C)N2CCCCC2)cc1 | 2% | -0.21 | – | –
CC1(C)CC[C@H](CNC(=O)c2ncccc2Cl)O1 | -16% | 1.96 | – | –
CC(C)(C)n1cc(CNc2ccc(Cl)c(F)c2)nn1 | 2% | -0.18 | – | –
Cc1cccc(C)c1C(=O)NC(C)C(C)CO (stereo not drawn) | -14% | 1.18 | – | –
Cc1c(C(=O)NC2CCN(C)CC2)sc2nc(-c3ccccc3)c(NC3CCCC3)n12 | -8% | 1.28 | – | –
O=C(CCc1nc2cccnc2[nH]1)NCCN1CCOCC1 | – | – | 1% | -1.34
CCCCNc1ccccc1C(=O)N[C@H]1CC[C@H](O)CC1 | 1% | -0.09 | – | –
CN(CCCN1CCCC1)C(=O)Nc1cc(F)ccc1OC(F)F | -2% | 0.24 | – | –
COc1ccc(NC(=O)C2C3NC(=O)N(c4ccccc4)C2(C)Oc2ccccc23)cc1 (stereo not drawn) | 29% | -3.26 | – | –
COCCn1ccc(NC(=O)NCc2cccnc2)n1 | 7% | -1.37 | – | –
Cn1nc(NC(=O)c2ccccc2)c2c1CCN(C(=O)C1CCC1)C2 | -10% | 0.86 | – | –
Cc1ccc(-c2nc(C)c([C@H](C)NC(=O)NC3CCOCC3)s2)cc1 | -12% | 1.72 | – | –
Cc1cc(N2CCC(N[C@H]3CCCOc4c(Cl)cccc43)CC2)[nH]n1 | -10% | 1.47 | – | –
CCN(C)c1nc(N2CCN(c3ccc(C)cc3)CC2)nc2c1CN(C(=O)OCc1ccccc1)CC2 | -8% | 0.96 | – | –
C/C(=C\c1ccccc1)CN1CCCn2nc(CNC(=O)C3CCC3)cc2C1 | 7% | -1.18 | – | –
O=C1[C@@H]2Cc3c([nH]c4ccccc34)CN2C(=O)CN1C1CCCCC1 | 6% | -1.1 | – | –
O=C(c1ccccn1)N1C[C@H]2CC[C@@H](C1)N(C(=O)c1n[nH]c3ccccc13)C2 | -7% | 1.18 | – | –
CO[C@@H](C)CS(=O)(=O)Nc1ccc(C#N)c(C#N)c1C | 5% | -0.99 | – | –
Cn1cccc1C(=O)Cn1cnc(C#N)n1 | 2% | -0.31 | – | –
O=C(CCc1nc([C@@H]2CCCN2Cc2cccc3[nH]ccc23)no1)N1CCCC1 | 1% | -0.17 | – | –
CC(C)N1CCN(c2nc(C3CCCC3)nc3c2CCOCC3)CC1 | -1% | 0.14 | – | –
Cc1c(N2C(=O)[C@H](Cc3ccccc3)N(C)C2=O)cccc1C(F)(F)F | -7% | 0.69 | – | –
COc1cccc(OC)c1Cn1cnc2ccncc2c1=O | -1% | 0.12 | – | –
CN1C[C@@H](NS(=O)(=O)c2cccnc2)CCC1=O | 6% | -0.82 | – | –
Cc1ccc([C@H](C)NC(=O)Cn2cnc(-c3nc(C)cs3)c2)cc1 | 6% | -0.74 | – | –
CC(C)c1nccc(-c2nccn2CCN2CCCC2=O)n1 | -9% | 0.89 | – | –
CC[C@H](C)N(Cc1ccc(C)cc1)Cc1ncnn1CC | -19% | 2.76 | – | –

Compound | % Inhibition | Z score | % Inhibition (2 µM) | Z score (2 µM)
Cc1nc(CNC(CC2CCOC2)c2ccccc2)no1 (stereo not drawn) | -9% | 1.3 | – | –
O=C(NCC1CC1)C1CCN(C(=O)c2ncn3c2CO[C@H](c2ccccc2)C3)CC1 | -16% | 1.45 | – | –
Clc1cc(Cl)cc(/N=C2\NC3(CCCCC3)Cc3ccccc32)c1 | -5% | 0.62 | – | –
CC(C)Oc1nc(-c2cccc(C(F)(F)F)c2)n(-c2cccc(NC(=O)c3ccc(F)cc3)c2)n1 | -13% | 1.48 | – | –
Cc1noc(C)c1C(=O)NC1CCN(Cc2ccccc2)CC1 | 1% | -0.26 | – | –
Cc1ccc(-n2nc(C(=O)NCCc3ccccn3)c(=O)n(Cc3cccnc3)c2=O)cc1 | -15% | 2.1 | – | –
CCCCc1nc(N)c(-c2ccc(OC)cc2)c(C#N)c1CCC | 12% | -2.19 | – | –
COc1ccc(CN2CCN3C(=O)N(C4CCOCC4)C[C@H]3C2)cn1 | -4% | 0.73 | – | –
COc1ccc(NC(=O)N(C)CCc2noc(C3CCCCC3)n2)cc1OC | -9% | 0.86 | – | –
Cc1cc(C)c2c(-n3c(C)ccc3C)nn(CC(=O)NCCc3ccccc3C)c2n1 | -6% | 0.59 | – | –
COc1cccc(N2CCN(C(=O)c3ccc(-c4nc(-c5ccc(F)cc5)no4)cc3)CC2)c1 | -4% | 0.69 | – | –
CNCC1CCCOC1c1ccccc1 (stereo not drawn) | -12% | 1.45 | – | –
Cc1ocnc1C(=O)N1C[C@@H](C)N(C(=O)c2ncoc2C)[C@@H](C)C1 | -8% | 0.82 | – | –
CC(C)c1cc(C(=O)N2CCC[C@H](C)C2)nc2ccnn12 | 8% | -1.25 | – | –
CCn1cc(CNC(=O)N2CCC(O)(Cc3ccccc3OC)CC2)cn1 | 1% | -0.13 | – | –
Cc1nccc(NC(=O)c2ccn(C(C)C)n2)n1 | -5% | 0.75 | – | –
O=c1[nH]c2ccc(-c3csc(NC4CCCC4)n3)cc2[nH]1 | 3% | -0.28 | – | –
O=C(Nc1ccc(Cl)cn1)C1C(c2ccccc2)C1(Cl)Cl (stereo not drawn) | -6% | 0.82 | – | –
C[C@@H](c1n[nH]c(=O)n1Cc1ccc(Cl)cc1Cl)n1cccn1 | -4% | 0.49 | – | –
NC(=O)[C@H]1CCN(Cc2csc(-c3ccsc3)n2)C1 | -2% | 0.27 | – | –
Cc1ccc(NC(=O)c2ccn(C(=O)Nc3ccccc3)n2)c(C)c1 | -10% | 1.35 | – | –
Cc1cc(F)ccc1NC(=O)[C@H](C)NC(=O)COc1cccnc1 | -1% | 0.15 | – | –
COc1cccc(CN2CCC3OCC(=O)NC3C2)c1F (stereo not drawn) | 0% | 0 | – | –
c1csc([C@@H]2CCCN2Cc2cscn2)n1 | 2% | -0.31 | – | –
CCN(CCC(F)(F)F)C(=O)c1cc(C)cc(C)c1 | -10% | 1.23 | – | –
Cc1ncc(CN2CCCN(C(=O)OCC(C)C)CC2)c(C)n1 | 1% | -0.08 | – | –
CCCNC(=O)Cn1c(C)ncc(-c2nc(-c3ccccc3)cs2)c1=O | -10% | 1.61 | – | –
